± gives the standard deviation of the averaged measurements. Some of the results follow.
These sequences were tested on PfAP2-G AP2 domain (GST-tagged) (assay: gcPBM binding intensity (ln(normalized median fluorescence intensity)); higher = stronger DNA binding).
Summary of the method: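 GST-tagged P. falciparum DNA-binding domains, expressed in E. coli (about 25 μg on average), were applied for 1 h to an Agilent 4 × 180k array of primer-extended double-stranded 36-bp intergenic genomic probes plus negative controls. The binding buffer was 1× PBS with 1% milk, 0.2 mg/ml BSA, 0.5% salmon testes DNA and 0.03% Triton X-100. Bound protein was detected with Alexa488 anti-GST antibody and scanned at 488 nm. Binding intensity is the highest Masliner-normalised natural-log median intensity across replicate spots of either probe orientation.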

Sequence	gcPBM binding intensity (ln)
TAATATTATTTAGAGTGTACTCATAAATCAACAAAA [XGTACX_site5269]	11.6 ± 1.1
CTAAGCTAAGTAAGCTGTACTTCACCTTTATACAGT [XGTACX_site3087]	11.5 ± 0.92
CTATTTTTATATTATTGTACGTTGTTATTATATATA [XGTACX_site1469]	11.2 ± 0.61
ATTAAGTTAAACATTACACACTATGTATTATTTATG [CACACA_site973]	10.025 ± 0.007
TTTTTCTTAAAAAATTGTACACATATATATATATAT [XGTACX_site542]	11.5 ± 0.75
TTTTTTTTTTTTAATACACACATATTTATATTTATT [CACACA_site7802]	9.9 ± 0.27
AATTAAAATAATAATACACACATCATAGAAAAAGAC [CACACA_site292]	10.5 ± 0.33
AAATTAGACTATAATACACACATAAAAAAAAAATCA [CACACA_site7672]	10.1 ± 0.21
TTATACTAAATGAACACACACACATCTATATTTATA [CACACA_site6199]	9.995 ± 0.021
TATTACATTGTTGAATGTACTCATTTAAAATTTATA [XGTACX_site7987]	11.3 ± 0.88
AATCAAAGCCCACATACACACACATATATATATATA [CACACA_site7987]	10.3 ± 0.15
ATGTCAAACATTTGCACACAAAAAAATAAAAATTAA [CACACA_site692]	10.1 ± 0.35
AATTGGGTAGGACATGCATGAGAAATTAATATTGCA [TGCATGCA_site356]	10.7 ± 0.58
ATATATATATATATATGTACTAACCTTTTAAAATAT [XGTACX_site6488]	11 ± 0.69
TTTTTTTTTTTTTGCACACACATAATAGGTACAAAT [CACACA_site3577]	11.3 ± 1.1
TTTTTTTTTTTTTTCTCACACATTTAATGATAATAT [CACACA_site5513]	9.78 ± 0.34
CATATTTACTATCACACACACGATATATATAAATAT [CACACA_site1241]	10.13 ± 0.085
TCATATTTCCATAGGAGTACATAAAAAAAATAATAT [XGTACX_site7601]	11.7 ± 1.2
TATGATATGTTATACACACACGTATTTATGAATTGA [CACACA_site7591]	10.2 ± 0.15

Sequence	gcPBM binding intensity (ln)
TTATGTAAAATCGATACATGCATTAATCATTTTATA [TGCATGCA_site493]	9.86 ± 0.16
ATCAACAAAACATACACACACATATAGATTTATATA [CACACA_site7415]	9.915 ± 0.092
AAAAAAAAAAAACACACACACATATATATATATATA [CACACA_site732]	9.8 ± 0.23
ATTTATATTAATGGATAAATAAATGTGTACTTGATA [CACACA_negctrl_site24]	11.5 ± 1.4
TTCTTTATTATATGCACACGTACATATAATATATAT [CACACA_site2018]	11.4 ± 0.87
GAAATAGAGAGACACACACACATATATTTATGTATT [CACACA_site7794]	9.93 ± 0.028
ATCATATTGAATATTTAACACACATTTCGCTTAATT [CACACA_site8652]	9.935 ± 0.007
AATTAGCTATTTAAAAATATATAAAATTTATATATA [CACACA_negctrl_site390]	9.64 ± 0.25
TATATATATAAAAGTTGTACAGTGTTTTATATAGTT [XGTACX_site7085]	11.5 ± 1
AAAATGTAGAAATGGGTGCACACACATATATAATAT	10.6 ± 0.39
AACTGTACAATTTTTGTGCACAATAATTATTAATAT [GTGCAC_site9462]	11.5 ± 0.81
TGCTATATAATATGAGCACACATAAGATTTGGTGTT [CACACA_site8148]	9.985 ± 0.007
ATATTTTTATTTAAACGTACATACACGTTGAAAAGA [XGTACX_site4567]	11.3 ± 0.95
TTTTCAATTAATAATACACACATGTATATATCATTA [CACACA_site7539]	9.77 ± 0.15
TAATGCATTATTAGAATACACACCATACGCATATTT [CACACA_site289]	10.07 ± 0.035
TGATGTTGTAACAAAAGTACACACACATTTCTATAA [XGTACX_site5837]	11.3 ± 0.98
TTTTTCTTTTGATGTTGTACATATATATTATATATA [XGTACX_site2754]	11.3 ± 0.84
AAGAAAAAAAAAAAAAATATATATATAAGAACATAT [TGCATGCA_negctrl_site131]	9.53 ± 0.2
GATAAAACGTTATGCACACGTACGTGGGTATTTATA [CACACA_site4954]	11.1 ± 0.43

Sequence	gcPBM binding intensity (ln)
TTTAATAATTATTAAAGTACAAAATAAATATTGAAT [XGTACX_site7538]	11 ± 0.62
TATAAAAAAATATATATATATATATATATATAAATA [TGCATGCA_negctrl_site22]	9.6 ± 0.36
AACTATAAAAAAAATACACACATTACCAAAAATATA [CACACA_site1529]	9.96 ± 0.014
AATCTGATTTGTATATGTACACAAATATTTTTATTT [XGTACX_site5295]	11.5 ± 0.91
GTGAATGATTTAAGTACACACCGGTATTTATTCAAA [CACACA_site4950]	11.4 ± 0.98
AAAAAAAAAAATAAATGTACAAAATAATGGGGAACA [XGTACX_site8723]	10.7 ± 0.28
AAAAAAAAAAAATACACACACACATATTTATTTATA [CACACA_site6483]	9.94 ± 0.16
TGTATTAAAAATTTGGTGCAACTTTTACATAATAAT	10 ± 0.16
TTTTTTTTTTTTTTTTGTACGAATAAACAAGTTATT [XGTACX_site5473]	10.8 ± 1.2
ATATATATATATATATGTACATATTTTATTTAATTT [XGTACX_site1807]	11.2 ± 0.69
ATACACAAGAATATGTTGCACTTTTATATTCGTATG	10.06 ± 0.028
AATAAAATTGACCATTCACACAAGAAAAATTAATCA [CACACA_site5636]	10.5 ± 0.47
GATTCGATCTATATATGTACACATAAATATTTTTTG [XGTACX_site7015]	11.5 ± 1
TATATATTTATTTATTGTACACTCTTTAAGAATACA [XGTACX_site2569]	11.2 ± 0.72
TATATATATATATATATATATATATATGTGTATGTA [TGCATGCA_negctrl_site255]	10.1 ± 0.61
AATATAAAAATGTTTACACACACACCGAAATATATT [CACACA_site8800]	10.2 ± 0.14
TATGCCATGGCATAATGTACATAAGTGACCTCATAA [XGTACX_site1294]	11.1 ± 0.7
AATATTTATATTAACTGTACAGAAAATATCTTTGCT [XGTACX_site8130]	11.1 ± 0.71
CATAAGATTTTTACATGTACATATTTATAATATATT [XGTACX_site6578]	11.3 ± 0.88

Reference: the supplement of paper PMC11417369
